# PubChem BioAssay AID624417 (National Center for Advancing Translational Sciences (NCATS), 2012)
# The whole screen tested about 410,000 compounds, of which about 6,400 (1.6%) were called active. The shares of active, inactive and inconclusive entries below differ from those in the screen. The call rests on the fitted dose curve; in most records, active means well fitted inhibition curve with a large enough effect; inconclusive means small, poorly fitted or top-dose-only effect; inactive means no such curve, though single readings can be large or run the other way. Potencies of inconclusive entries are left out as doubtful fits.
# Biological target: Glucagon-like peptide 1 receptor (Homo sapiens) (UniProt P43220)
# Assay: qHTS of GLP-1 Receptor Inverse Agonists (Inhibition Mode); further: nearly all actives have a fitted effect of over 55% in size
# Settings: HEK293 GLP-1R CRE-luciferase, luminescence, 24 h, GLP-1R form is constitutively active; series mostly up to 38.3 µM
# Summary of the method: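 GLP-1R inverse agonism mode: basal reporter luminescence in engineered HEK293 cells measured after one day of compound exposure at 37 deg C, with a 12 min room-temperature detection step.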
# Potency means the concentration at half of the fitted maximal effect; tags describe the fitted curve by direction and shape.
# UniProt P43220, sequence (P43220 whole entry, looked up): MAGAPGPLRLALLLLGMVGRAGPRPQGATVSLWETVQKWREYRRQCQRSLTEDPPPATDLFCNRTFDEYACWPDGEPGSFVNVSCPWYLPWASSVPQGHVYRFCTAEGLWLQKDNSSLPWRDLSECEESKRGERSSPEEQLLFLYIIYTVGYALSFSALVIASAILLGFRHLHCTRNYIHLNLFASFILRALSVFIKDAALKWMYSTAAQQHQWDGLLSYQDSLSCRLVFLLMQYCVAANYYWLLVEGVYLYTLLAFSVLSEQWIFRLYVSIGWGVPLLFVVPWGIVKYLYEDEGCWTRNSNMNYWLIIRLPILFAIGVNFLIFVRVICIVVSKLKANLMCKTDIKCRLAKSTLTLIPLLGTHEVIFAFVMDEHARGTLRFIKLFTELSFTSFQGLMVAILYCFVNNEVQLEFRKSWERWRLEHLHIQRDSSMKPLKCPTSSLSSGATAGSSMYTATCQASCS
row,SMILES,Potency
1,COc1ccc(OC)c(C(=O)c2coc3cc(Br)c(O)c(Br)c23)c1,"inconclusive [inhibitor, partial curve, poor fit]"
2,CC(=O)N1N=C(c2ccccc2)CC1c1cn(Cc2ccccc2)c2ccccc12 (stereo unspecified),"inconclusive [inhibitor, partial curve, poor fit]"
3,Cc1ccc(C)c(COC(=O)c2cc(S(=O)(=O)N3CCCCC3)ccc2N2CCOCC2)c1,"inconclusive [inhibitor, single point]"
4,Cc1cc(C)n(-c2ccc(C(=O)Nc3ccc4c(c3)OCCO4)cc2)n1,"inconclusive [inhibitor, single point]"
5,COC(=O)N1C(=O)[C@](c2ccc(Cl)cc2)(C(C)C)N1C(=O)OC,"inconclusive [inhibitor, single point]"
6,CN(C)c1ccc(NC(=S)Nc2ccc3c(c2)c(=O)n(C)n3-c2ccc(C(C)(C)C)cc2)cc1,"inconclusive [inhibitor, single point]"
7,Nc1ncnc2c1ncn2C1OC(COP(=O)(O)O)C(O)C1O (stereo unspecified),inactive
8,O=[N+]([O-])c1ccc(SCc2c(F)cccc2Cl)nc1,"inconclusive [inhibitor, partial curve, poor fit]"
9,O=C(NC12CC3CC(CC(C3)C1)C2)c1cncc(Br)c1,"inconclusive [inhibitor, partial curve, poor fit]"
10,COc1cc(CN2CCC(C(=O)NC(c3ccc(-c4ccccc4)cc3)c3cnccn3)CC2)cc(OC)c1 (stereo unspecified),"inconclusive [inhibitor, partial curve, poor fit]"
11,O=C1OCC2=C1C(c1ccc3c(c1)OCO3)Sc1ccccc1N2 (stereo unspecified),"inconclusive [inhibitor, partial curve, poor fit]"
12,Cc1nn(-c2nc3ccccc3[nH]2)c(N)c1-c1ccc(Cl)cc1,"inconclusive [inhibitor, single point]"
13,CC(=NCc1cccc(Cl)c1)c1nc(-c2ccco2)oc1O,"inconclusive [inhibitor, partial curve, poor fit]"
14,C/C(=N\Nc1nc(Cl)c(Cl)cc1Cl)c1ccc(S(=O)(=O)NCc2ccco2)cc1,inactive
15,CCOC(=O)c1c(C)[nH]c(C)c1S(=O)(=O)N(C)CC(=O)NCc1cccc(Br)c1,"inconclusive [inhibitor, single point]"
16,CCc1cc(C(=O)c2ccc(C)cc2)c(NC(=O)CCl)s1,"inconclusive [inhibitor, single point]"
17,COc1ccc(CN2CCCC(CO)(Cc3ccc(F)cc3)C2)c(OC)c1OC (stereo unspecified),"inconclusive [inhibitor, single point]"
18,O=C(Nc1cccc(C(F)(F)F)c1)Nc1cccs1,"inconclusive [inhibitor, single point]"
19,COc1cc(C(C(=O)NC2CCCCC2)N(C(=O)Cc2c[nH]c3ccccc23)c2ccc(C)cc2)cc(OC)c1OC (stereo unspecified),"inconclusive [inhibitor, partial curve, poor fit]"
20,O=C(COC(=O)c1cc([N+](=O)[O-])ccc1N1CCCC1)Nc1ccccc1OC(F)F,"inconclusive [inhibitor, single point]"
21,O=C(CCN1C(=O)c2ccccc2C1=O)NC(=S)Nc1ccccc1,inactive

row,SMILES,Potency
1,CCCCN(CC)C(=O)C1CCCN(c2ncnc3c2nc2n3CCCCC2)C1 (stereo unspecified),inactive
2,COc1cccc(NC(=O)Nc2ccccc2SC)c1,"inconclusive [inhibitor, single point]"
3,COCCCNCCCCOc1ccc(OCc2ccccc2)cc1,"inconclusive [inhibitor, single point]"
4,O=C(NC(=S)Nc1ccc(NC(=O)c2cccs2)cc1)c1ccc([N+](=O)[O-])cc1,"inconclusive [inhibitor, partial curve, poor fit]"
5,O=C(C1CCN(S(=O)(=O)Cc2ccccc2)CC1)N1CCCc2ccccc21,"inconclusive [inhibitor, single point]"
6,O=C(CSc1nnc(CNc2ccc(Cl)cc2)n1Cc1ccccc1)NCc1ccco1,"inconclusive [inhibitor, single point]"
7,COc1ccccc1CNC(=O)CSc1nn2c(=O)c(C(C)(C)C)nnc2s1,"inconclusive [inhibitor, partial curve, poor fit]"
8,Cc1noc(/C=C/c2ccccc2F)c1S(=O)(=O)N1CCC(C(=O)Nc2ccc(C#N)cc2)CC1,"inconclusive [inhibitor, full curve, poor fit]"
9,CCCCNC(=O)CCn1c(=O)c2ccccc2n(Cc2cccc(Cl)c2)c1=O,inactive
10,CCC(C)NCCOCCOc1cc(C)c(Cl)c(C)c1 (stereo unspecified),"inconclusive [inhibitor, partial curve, poor fit]"
11,CCOc1cc(C(=O)N(Cc2ccccc2)c2ccc(C)cc2)ccc1OCC(=O)N1CCOCC1,"inconclusive [inhibitor, single point]"
12,O=C(Oc1c(CN2CCOCC2)cc(Cl)c2cccnc12)c1ccc(F)cc1,"inconclusive [inhibitor, partial curve, poor fit]"
13,Cc1ccccc1OCC(=O)NCCC1=CCCCC1,"inconclusive [inhibitor, single point]"
14,Cc1ccc(CN2C(=O)CCC2C(=O)NCc2ccccc2Cl)cc1 (stereo unspecified),inactive
15,COCc1nc2ccccc2n1Cc1ccccc1C,"inconclusive [inhibitor, single point]"
16,Cc1ccc(C)c(NC(=O)c2cc(S(=O)(=O)NCCc3ccccc3)ccc2F)c1,"inconclusive [inhibitor, partial curve, poor fit]"
17,Cc1cccc(NC(=O)CSc2nc3ccccc3nc2N2CCCCC2)c1,"inconclusive [inhibitor, full curve]"
18,CCCCOc1ccccc1C1CC(=O)NC2=C1C(=O)CCC2 (stereo unspecified),"inconclusive [inhibitor, partial curve]"
19,O=C(CCl)Nc1c2c(nn1-c1ccccc1)CSC2,"inconclusive [inhibitor, single point]"
20,O=C(Nc1ccc2c(c1)OCO2)c1ccc(NC2CC2)c([N+](=O)[O-])c1,"inconclusive [inhibitor, partial curve, poor fit]"
21,Cc1ccc(NC(=O)CCc2ccccc2)cc1S(=O)(=O)N1CCOCC1,"inconclusive [inhibitor, partial curve, poor fit]"

row,SMILES,Potency
1,CC(C)N(Cc1ccccc1)C(=S)NC1CCCCC1,"inconclusive [inhibitor, single point]"
2,COC(=O)c1ccccc1NC(=O)CN1CCN(C23CC4CC(CC(C4)C2)C3)CC1,inactive
3,CCc1nc2ccc(C(=O)N3CCN(c4cccc(C(F)(F)F)c4)CC3)cc2nc1CC,"inconclusive [inhibitor, partial curve, poor fit]"
4,Cc1cc(C)cc(NS(=O)(=O)c2ccc3oc(=O)ccc3c2)c1,"inconclusive [inhibitor, single point]"
5,CC1(C(=O)NNC(=O)c2ccc([N+](=O)[O-])cc2)CC1(Br)Br (stereo unspecified),"inconclusive [inhibitor, single point]"
6,CCOC(=O)c1ccc(NC(=O)CC2C(=O)N(c3ccccc3)C(=O)N2Cc2ccc(C)cc2)cc1 (stereo unspecified),"inconclusive [inhibitor, single point]"
7,COc1ccc(C2=NN(C(=O)CSc3cn(C)c4ccccc34)C(c3ccc(OC)cc3)C2)cc1 (stereo unspecified),"inconclusive [inhibitor, single point]"
8,CC(C)=CCC[C@H](C)C[C@@H]1Cc2[nH][nH]c(=O)c2[C@H](c2ccc(F)cc2)O1,inactive
9,CCCOc1ccc(C(=O)Nc2ccc(S(=O)(=O)NC3=NCCCCC3)cc2)cc1,"inconclusive [inhibitor, single point]"
10,Cc1ccc(C)c(N2CCN(C(=O)c3ccc(N4CCOCC4)c([N+](=O)[O-])c3)CC2)c1,"inconclusive [inhibitor, partial curve, poor fit]"
11,CCc1nc2c(OCc3cc(Cl)cc(Cl)c3)cccn2c1N(C=O)Cc1ccc(OC)cc1,"inconclusive [inhibitor, single point]"
12,COCCNC(=O)CN1C(=O)/C(=C/c2ccccc2)Oc2ccc(C(C)(C)C)cc21,"inconclusive [inhibitor, single point]"
13,CCc1ccccc1Nc1nn2c(=O)c3ccc(C(=O)NC4CCC(C)CC4)cc3nc2s1 (stereo unspecified),inactive
14,CCOc1cc(C(=O)N(Cc2nc(-c3ccc(C)cc3)no2)C(C)C)cc(OCC)c1OCC,inactive
15,Cc1[nH]c2ccccc2c1/C=N/NC(=O)CNC(=O)COc1ccccc1,"inconclusive [inhibitor, partial curve]"
16,Cc1ccccc1N1CCN(C2CCCN(C(=O)c3csc(C(C)C)n3)C2)CC1 (stereo unspecified),"inconclusive [inhibitor, single point]"
17,CC1(C)CC(NC(=O)c2cccc(S(=O)(=O)Nc3cccc(Cl)c3)c2)CC(C)(C)N1,"inconclusive [inhibitor, partial curve]"
18,CCOc1ccccc1N1CCN(S(=O)(=O)c2cc(C)ccc2OC)CC1,"inconclusive [inhibitor, single point]"
19,CCOc1ccc(NC(=O)COC(=O)c2cc([N+](=O)[O-])ccc2N2CCOCC2)cc1,"inconclusive [inhibitor, single point]"
